From PubChem BioAssay AID1508624 (National Center for Advancing Translational Sciences (NCATS), 2021)
Hit rate of the full screen: of about 48,000 compounds, about 120 (0.25%) were called active. Not shown: some 4% with an inconclusive outcome. Calls come from the whole dose curve; as a rule, active = well fitted activation curve with a large enough effect; inconclusive = small, poorly fitted or top-dose-only effect, or another doubt; inactive = no such curve, though single readings can be large or run the other way. The list shows a part of the results.

Experiment: Primary qHTS for Identification of Small Molecule Activators of Huntingtin-Antisense Promoter Activity; note: nearly all actives have a fitted effect of over 55% in size
Details: HEK293 HTT-AS promoter firefly luciferase reporter (activity 0% = vehicle and -100% = no light), 24 h; series mostly up to 57.5 µM; activity change, positive = activation: at the top concentration
In short: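 HEK293 Fluc reporter, 2,500 cells/well, 24 h pre-culture; cpds up to 57.5 uM final, 24 h 37 degrees C; Dual-Glo, 10 min RT; normalized vehicle = 0%, zero RLU = -100%.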

Activity change, positive = activation, inactive:
CCOc1ccccc1CNC(=O)c1cc2n(n1)CCCN(Cc1ccc(C)cc1)C2=O -22.6%, CCOc1ccc(NC(=O)CSc2nc(C)c(C(=O)Nc3ccccc3)c(-c3ccc(Cl)cc3)c2C#N)cc1 8.09%, CCc1cccc(-n2c(C)nc3c(cnn3-c3ccc(C)c(C)c3)c2=O)c1 -6.91%, O=C(Nc1ccc(OC(F)(F)F)cc1)c1nc2ccccc2nc1N1CCCCC1 -6.19%, CCn1c2ccccc2c2cc(CN3CCN(Cc4ccccc4Cl)CC3)ccc21 -18.4%, COc1cccc(NC(=O)CSc2nc3cc(OC)c(OC)cc3c3nc(-c4ccccc4)nn23)c1 0.989%, CC(=O)Nc1ccc(S(=O)(=O)Nc2cc(C)on2)cc1 -0.0382%, COc1cc(OC)c(NC2(c3ccccc3)C(=O)c3ccccc3C2=O)cc1Cl -9.05%, C[C@H](NC(=O)OC(C)(C)C)c1nnc(SCc2c(F)cccc2Cl)o1 -23.9%, CCc1ccc(NC(=O)Cn2nc3c4ccccc4n(Cc4ccccc4)cc-3c2=O)cc1 -7.19%, O=C(O)CP(=O)(O)O 2.46%, O=C(c1ccc(CSc2nc3ccncc3n2Cc2ccc(F)cc2)cc1)N1CCCCCC1 -17.6%, COCCCNC(=O)c1cc2c(=O)oc3ccc(C)cc3c2s1 -17.9%, CCc1nc2ccc(C(=O)N3CCN(c4cccc(C)c4C)CC3)cc2nc1CC 10.8%, CCOc1ccc(-c2cc(OC(=O)c3ccc(OC)cc3)c3c(C)oc(C)c3c(=O)c2)cc1 -13.5%, CCOc1ccc(C(=O)N(Cc2sccc2C)C2CCS(=O)(=O)C2)cc1 (configuration not stated) -17.8%, O=C1CC(c2cccc(O)c2)c2c(nc(SCc3ccccc3F)[nH]c2=O)N1 (configuration not stated) -1.68%, CCC1CN(C(=O)N2CCC(C(=O)Nc3ccccc3F)CC2)c2ccccc2O1 (configuration not stated) -23.4%, CCNC(=O)/C=C/c1cccc(Br)c1 17.8%, CC(C)NCCCC1(C(N)=O)c2ccccc2-c2ccccc21 -12.6%, CCCC(=O)Nc1ccccc1OCc1cc(=O)n2cc(C)ccc2n1 -5.35%, Cc1ccc(CCNC(=O)c2ccc3c(Cl)c4c(nc3c2)CCCC4)cc1 -28%, COc1ccc(NC(=O)CN2C(=O)COc3ccc(S(=O)(=O)N4CCCCCC4)cc32)cc1 -9.52%, Cc1ccc(C)c(N2CCN(c3c(CN4CCCC4)c(=O)oc4ccccc34)CC2)c1 -5.32%, COc1ccccc1CNC(=O)c1ccc2nc(N3CCCCC3)sc2c1 -28.5%, O=C(Nc1cccc(Cl)c1Cl)c1cc(S(=O)(=O)NCc2ccc3c(c2)OCO3)ccc1F -12.6%, Cc1ccc(-n2c(=O)cc(N3CCN(c4ccccc4Cl)CC3)[nH]c2=O)cc1 -19.4%, Cc1ccc(CN2CCCN(CC(=O)Nc3ccc(C)cc3C)S2(=O)=O)cc1 -9.06%, Cc1c(C(=O)Nc2ccc(C(=O)O)cc2)nnn1-c1ccccc1 -90.9%, CSc1ccc(CCNC(=O)Cn2ccc3cc(S(=O)(=O)N4CCCCCC4)ccc32)cc1 -35.6%, O=C(Nc1nc2n(n1)C(c1ccc(F)cc1)C=C(c1ccccc1)N2)c1ccco1 (configuration not stated) -15.1%, O=c1c(-c2cc(-c3ccccc3)nc3c2COc2ccc(Cl)cc2-3)coc2ccc(F)cc12 2.42%, Cc1c(Cl)cccc1NC(=O)c1ccc2c(c1)CCN2S(=O)(=O)c1ccccc1 3.27%, CN(C)CCNc1ncnc2c1cnn2-c1cccc(Cl)c1 15.2%, NC1CCN(c2nc3c(cc2F)c(=O)c(C(=O)O)cn3-c2ccc(F)cc2F)C1 (configuration not stated) 1.88%, CN(C)c1ccc(C(CNC(=O)c2ccccc2C(F)(F)F)N2CCOCC2)cc1 (configuration not stated) 1.27%, COc1ccc(CNC(=O)C2CCCN(S(=O)(=O)c3cccc4nsnc34)C2)cc1 (configuration not stated) -16.9%, Cn1nnnc1SCCCNCc1cc(Cl)ccc1OCc1ccc(F)cc1 -13.9%, COC(=O)c1c(NC(=O)c2nc(SCc3ccc(F)cc3)ncc2Cl)sc2c1CCCC2 0%, Cc1nn2c(=O)cc(COC(=O)Cc3ccccc3)nc2s1 6.73%, Nc1c(C(=O)Nc2ccc(OC(F)(F)F)cc2)sc2nc(-c3ccncc3)ccc12 -45.6%, CCOc1ccccc1-c1noc(CSc2nnc(-c3ccccc3)n2-c2ccc(F)cc2)n1 -29.1%, CCCCN(CC)CCCNC(=O)c1cc2c(=O)[nH]c3ccccc3c2n1C -9.87%, COc1ccc(NC(=O)CCCSc2nc(-c3ccco3)cc(C(F)(F)F)n2)cc1OC -13.2%, CCc1ccc(-c2cn3c(n2)sc2cc(C(=O)NC4CCCCC4)ccc23)cc1 1.59%, COc1cccc(-c2nc(S(=O)(=O)c3ccc(Cl)cc3)c(NCc3ccccc3)o2)c1 -17.7%, CC(=O)Nc1ccc(NS(=O)(=O)c2c(C(=O)N3CCC(C)CC3)c(C)n(C)c2C)cc1 -17.2%, COc1ccc2oc(=O)c(C(=O)NCCc3c(C)[nH]c4ccc(F)cc34)cc2c1 -30%, COCCNc1oc(-c2ccccc2)nc1S(=O)(=O)c1ccc(Br)cc1 -23.2%, COc1ccc2sc(N(Cc3cccnc3)C(=O)c3ccc4c(c3)OCCO4)nc2c1 -20.4%, CCc1ccc(S(=O)(=O)N(C(=O)c2ccncc2)c2ccc3oc(C)c(C(=O)OC)c3c2)cc1 -86.8%, COc1cccc(Cn2c(Oc3cc(C)cc(C)c3)nc3c2c(=O)n(C)c(=O)n3C)c1 -15.7%, COc1ccc(CC(=O)N2CCc3cc(OC)c(OC)cc3C2COc2cc(C)cc(C)c2)cc1OC (configuration not stated) -19%, Cc1nn(S(=O)(=O)c2ccc(Br)cc2)c(C)c1S(=O)(=O)N1CCCCCC1 -4.02%, CCOC(=O)c1ccc(N2C(=O)c3n[nH]c(-c4ccco4)c3C2c2ccc(C)cc2)cc1 (configuration not stated) -58.8%, Cc1cc(C)cc(NC(=O)CCS(=O)(=O)c2cccc3nsnc23)c1 -9.56%, CC(=O)c1ccc(NS(=O)(=O)c2cccc(S(=O)(=O)c3ccc(Cl)cc3)c2)cc1 -33.1%, CCc1ccc(N(CC)C(=O)c2cc3c(=O)oc4ccc(C)cc4c3s2)cc1 -4.01%, Cc1cccc(C)c1Nc1nn2c(=O)c3cc4c(cc3nc2s1)OCO4 -10.2%, Cc1cccc(NC(=O)CSc2ccc(-c3ccccn3)nn2)c1 -14.8%, COc1ccc(-n2nc(C(=O)N3CCCC(C)C3)c3c4ccccc4n(C)c3c2=O)cc1Cl (configuration not stated) -8.57%, CCOC(=O)c1ccc(NC(=O)CSc2c3c(nc4cc(Cl)ccc24)CCCC3)cc1 -12.9%
